Assay results from PMC4336329 (PLoS ONE, 2015).
Screen size: about 310,000 compounds; about 14,000 (4.5%) showed an effect of 50% or more. The effect is printed as a negative number. The list shows a part of the results.

These compounds were tested against human ether-à-go-go-related gene (hERG) potassium channel (human, UniProt Q12809) (assay: primary screen, population patch clamp on CHO cells stably expressing hERG).
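Also: peak tail current of the secondary pulse compared with the same well before compound.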

human ether-à-go-go-related gene (hERG) potassium channel, sequence (Q12809 whole entry, looked up): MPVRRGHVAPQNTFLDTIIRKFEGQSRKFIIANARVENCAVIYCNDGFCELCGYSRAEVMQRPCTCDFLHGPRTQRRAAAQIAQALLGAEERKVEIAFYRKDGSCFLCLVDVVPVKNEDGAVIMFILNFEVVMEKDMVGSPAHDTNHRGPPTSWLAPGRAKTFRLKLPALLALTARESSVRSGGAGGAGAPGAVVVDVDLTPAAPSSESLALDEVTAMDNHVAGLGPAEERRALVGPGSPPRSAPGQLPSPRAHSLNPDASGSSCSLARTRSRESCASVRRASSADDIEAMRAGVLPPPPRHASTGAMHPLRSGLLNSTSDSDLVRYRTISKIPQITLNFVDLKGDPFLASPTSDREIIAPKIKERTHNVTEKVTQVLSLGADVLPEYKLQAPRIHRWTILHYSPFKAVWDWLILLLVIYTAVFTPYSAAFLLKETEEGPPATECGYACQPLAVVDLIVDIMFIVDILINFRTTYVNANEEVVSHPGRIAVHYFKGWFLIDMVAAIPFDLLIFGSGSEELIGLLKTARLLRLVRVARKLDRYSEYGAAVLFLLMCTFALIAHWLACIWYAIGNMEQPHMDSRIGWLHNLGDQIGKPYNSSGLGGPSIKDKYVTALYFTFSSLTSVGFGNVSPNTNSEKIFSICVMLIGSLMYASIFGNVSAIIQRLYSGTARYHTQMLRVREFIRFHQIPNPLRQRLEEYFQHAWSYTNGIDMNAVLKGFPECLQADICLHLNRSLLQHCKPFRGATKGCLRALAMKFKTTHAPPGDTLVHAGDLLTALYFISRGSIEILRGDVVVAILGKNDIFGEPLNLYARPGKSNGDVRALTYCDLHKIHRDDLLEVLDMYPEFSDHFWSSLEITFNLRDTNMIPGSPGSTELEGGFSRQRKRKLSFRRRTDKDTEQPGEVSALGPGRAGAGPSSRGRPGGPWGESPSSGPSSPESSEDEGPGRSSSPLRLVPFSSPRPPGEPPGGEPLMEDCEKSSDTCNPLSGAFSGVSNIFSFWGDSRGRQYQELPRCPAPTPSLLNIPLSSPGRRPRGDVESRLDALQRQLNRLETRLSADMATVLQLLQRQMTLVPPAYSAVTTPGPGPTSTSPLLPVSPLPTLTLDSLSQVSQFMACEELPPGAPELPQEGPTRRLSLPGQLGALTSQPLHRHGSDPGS

| SMILES | hERG current change (%, negative = inhibition) at 10uM [%] |
| --- | --- |
| CCCCOc1ccc(-c2ncc(C(=O)OCC)c(N)n2)cc1 | 7.2 |
| COC(=O)Cn1c(=NC(=O)CSCC(=O)Nc2cc(C)on2)sc2ccccc21 | 14.6 |
| CC(C)CC(CO)N1CCN(C(=O)c2ccccc2)CCC1=O (stereo not drawn) | 4.64 |
| CN1C(=O)NC(NC(=O)c2cccs2)(C(F)(F)F)C1=O (stereo not drawn) | 9.22 |
| Cc1cccc(Cc2nnc(CCC(=O)NCc3cnc4ccccn34)o2)c1 | 8.6 |
| c1ccc(CSc2ncnc3c2oc2ccccc23)cc1 | 8.6 |
| CCCCCCSc1ccc([C@@H]2[C@H]3C(=O)N(C)C(=O)[C@H]3[C@]3(C(=O)OC)CCCCN23)cc1OC.O=C(O)C(F)(F)F | -9.82 |
| CCCCCC(=O)Nc1ccc(S(=O)(=O)NC2=NCCCCC2)cc1 | -1.68 |
| CN(C1CC(C)(C)N(O)C(C)(C)C1)S(=O)(=O)CC12CCC(CC1=O)C2(C)C.Cl (stereo not drawn) | 21.8 |
| Cc1nc(CN(C)Cc2nc(Cc3ccccc3Cl)no2)cs1 | -7.91 |
| COc1ccc(/C=C2/C(=O)N(c3ccccc3)N=C2C)cc1Br | 21.9 |
| Cc1nc(-c2cn[nH]c2)c2cc(C)oc2n1 | 9.4 |
| C=CCOC(=O)C1=C(C)N=C2SCCC(=O)N2C1c1ccc(OC(=O)c2ccco2)cc1 (stereo not drawn) | -14.6 |
| CN(C)/C=C/C(=O)Oc1ccc(Cl)cc1Cl | -4.2 |
| O=C(NCc1ccc2c(c1)OCO2)C1CCCN1C(=O)Nc1ccc(Cl)cc1 (stereo not drawn) | -17.4 |
| COc1cc(NC(=O)CN2C(=O)c3ccccc3S2(=O)=O)c(OC)cc1Cl.Cl | 11.6 |
| COc1ccccc1/C=C/C=C1\Oc2c(ccc(O)c2CN2CCN(CCO)CC2)C1=O | 0.369 |
| Br.C=CCN1C(c2ccc(OCC)cc2)=CS/C1=C(\C#N)c1nnc2n1CCCCC2 | -37.9 |
| Cc1ccc2c(C)ccc(O)c2n1 | 5.84 |
| CCS(=O)(=O)Nc1ccccc1C(N)=O | 27.4 |
| COC(=O)C(C)Nc1cccc(Br)c1 (stereo not drawn) | -3.22 |
| Cc1ccc(C(=O)Nc2nnc(S(=O)(=O)N3CCCCCC3)s2)cc1 | 3.08 |
| N#CC1=C(N)Oc2cc3ccccc3cc2C1c1cccs1 (stereo not drawn) | 20 |

| SMILES | hERG current change (%, negative = inhibition) at 10uM [%] |
| --- | --- |
| Cc1cc(=O)[nH]c2nnnn12 | 4.44 |
| CCOc1ccc2[nH]c(=O)c(CN(CCCN3CCOCC3)Cc3nnnn3Cc3ccc(OC)cc3)cc2c1 | -60.9 |
| CC(=NCc1ccco1)c1c(C(F)(F)F)[nH]n(-c2nc3ccccc3s2)c1=O | -4.48 |
| COc1ccc(OC)c(S(=O)(=O)N2c3cc(F)ccc3CCC2C)c1 (stereo not drawn) | 4.48 |
| O=C(O)CN1C(=O)/C(=C\c2ccccc2OCc2ccc(Cl)cc2)SC1=S | 15.3 |
| Cc1ccc(C(=O)NCC(=O)NCC(c2cccs2)N2CCOCC2)cc1C (stereo not drawn) | -1.92 |
| CCOC(=O)C1=C(C)Nc2ncnn2C1c1ccc(N(C)C)cc1 (stereo not drawn) | 0.716 |
| O=S(=O)(Nc1ccon1)c1ccc(Br)cc1 | 10.7 |
| Cc1cccc(-c2nc(C#N)c(N3CCCCCC3)o2)c1 | 1.92 |
| COc1ccccc1NC(=O)Nc1cccc(NC(C)=O)c1 | 17.2 |
| O=C(CSc1nc2[nH]ncc2c(=O)[nH]1)NCc1ccc(F)cc1 | 16.7 |
| Cn1c(N)c(C(=O)CSc2nc3ccccc3[nH]2)c(=O)n(C)c1=O | -2.34 |
| O=C(C1CCC(=O)N(C2CCCC2)C1)N1CCN(c2ccc(Cl)cc2)CC1 (stereo not drawn) | -61 |
| Cc1noc(C)c1COc1ccc(C(=O)NCCc2ccc(F)cc2)cc1 | 5.6 |
| Cc1cccc(NC(=S)N2CCn3cccc3C2c2cccnc2)c1 (stereo not drawn) | -20.7 |
| O=C(O)CSc1cc(NS(=O)(=O)c2ccc(Br)cc2)c2ccccc2c1O | 20.3 |
| CCN(CC)c1ccc(CNc2nc3ccccc3n2CCN2CCOCC2)cc1 | -79.5 |
| COc1ccc(-n2ccnc2SCC(=O)NCc2ccco2)c(OC)c1 | -0.982 |
| C[C@]12CC[C@@H]3c4ccc(O[C@@H]5O[C@H](C(=O)[O-])[C@@H](O)[C@H](O)[C@H]5O)cc4CC[C@H]3[C@@H]1C[C@@H](O)[C@@H]2O.[Na+] | 2.21 |
| CC(OC(=O)CC1CCCCC1)C(=O)Nc1ccc(F)cc1 (stereo not drawn) | -0.705 |
| COc1cccc(CNC(=O)Cn2ccc([N+](=O)[O-])n2)c1 | 22.1 |
| Cn1c(CCCCCN)nc2ccccc21 | 7.44 |
| COc1cccc(CNC(=O)Cn2nc(C)c3c(C)n(-c4ccc(C)cc4)nc3c2=O)c1OC | 15.6 |

| SMILES | hERG current change (%, negative = inhibition) at 10uM [%] |
| --- | --- |
| Cc1c(CC(=O)O)c(=O)oc2c(C)c(OCc3ccc(F)cc3Cl)ccc12 | 17.8 |
| CCCCCC(=O)Nc1cccc(S(=O)(=O)NC2=NCCC2)c1 | 11.6 |
| COc1ccccc1CN1CCNC(=O)C1CC(=O)N(C)Cc1nc(C)cs1 (stereo not drawn) | 17 |
| CCC(=NCc1cccnc1)c1c(O)n(-c2ccccc2)c(=O)[nH]c1=O | -22 |
| Cc1cccc(Nc2nnc(SCC(=O)c3ccc(O)cc3O)s2)c1 | -18.4 |
| CN1CCN(S(=O)(=O)c2ccc(NC(=O)c3ccccc3Cl)cc2)CC1 | 8.9 |
| O=C(CNC(=O)c1ccccc1)Nc1ccc(Br)cc1C(=O)c1ccccc1 | -8.15 |
| COc1ccc(C(C)=O)cc1COC(=O)c1cc(C)nc2ccccc12 | 13.6 |
| COc1ccccc1CCNC(=O)Cc1cccs1 | -8.51 |
| CCN(Cc1cc(=O)n2ccsc2n1)c1cccc2ccccc12 | -3.5 |
| O=C(CSc1ccc(F)cc1)Nc1ccccc1N1CCOCC1 | -8.48 |
| Cc1csc(NC(=O)C2CCCN(S(=O)(=O)c3cnc[nH]3)C2)n1 (stereo not drawn) | 11.6 |
| COC(=O)Nc1ccc(OCc2ccccc2)cc1 | -2.46 |
| CCNS(=O)(=O)c1ccc(NC(=O)c2ccccc2SCCOC)cc1 | 1.07 |
| CC1CCCN(C(=O)CCl)C1 (stereo not drawn) | 18.8 |
| O=C(CN1CCN(c2ccc(O)cc2)CC1)N1CCc2ccccc21 | 10.5 |
| CN(C)CCOCCSc1ccc(Cl)cc1.O=C(O)C(=O)O | -37.3 |
| COc1cccc(OC)c1C(=O)Nc1ccccc1C(=O)N1CCCC1 | -0.733 |
| CN(CC(=O)Nc1cccc(F)c1)CC(=O)Nc1cccc(S(=O)(=O)N2CCCCCC2)c1 | -18.9 |
| CC/C(=N\Nc1ccccc1)c1c(O)n(-c2ccccc2)c(=O)[nH]c1=O | 6.39 |
| Nc1ccccc1Sc1ccc(C(=O)c2ccccc2C(=O)O)cc1[N+](=O)[O-] | 16.7 |
| Cc1ccccc1NC(=O)c1cc2ccccc2o1 | 5.93 |
| CCOC(=O)c1[nH]c2c(c1C)C(=O)CC(c1ccc(N(C)C)cc1)C2 (stereo not drawn) | -23.5 |

| SMILES | hERG current change (%, negative = inhibition) at 10uM [%] |
| --- | --- |
| COc1cc([N+](=O)[O-])cc(/C=N/NC(=O)c2ccc(C)nc2)c1O | 20.5 |
| CCN(CC)CCNCc1ccc(Br)cc1OCC(=O)NCc1ccccc1.Cl | -67.2 |
| COc1ccc(-n2c(N)c(C(=O)NCc3cccnc3)sc2=S)cc1 | 9.81 |
| COc1cc(O)c(C(CCN2CCCC(C)C2)c2cc(OC)c(OC)c(OC)c2)c(OC)c1 (stereo not drawn) | 5.07 |
| CCCCCn1c(=O)c(C(=O)Nc2cccc(C)c2)c(O)c2ccccc21 | 20.7 |
| O=C(O)c1ccc(-c2ccccn2)s1 | -1.12 |
| CCOC(=O)CC1CCCCN1C(=O)CCCn1nnnc1CN1CCC(C)CC1 (stereo not drawn) | 12.3 |
| CCOC(=O)c1sc(NC(=O)CSc2nccn2C)nc1C | -9.46 |
| Cc1ccc(Nc2cc(C)nn2-c2nc(C)cc(C)n2)cc1 | 6.03 |
| Cc1ccc(SCCC(=O)NC(C(C)C)C(C)C)cc1 | -7.68 |
| Cc1ccc(CSC2=NCCN2C(=O)c2ccco2)cc1 | -10.3 |
| COCCCNC(=O)c1c(-c2ccccc2)noc1C | 14.5 |
| O=C(Nc1ccc(F)cc1F)Nc1ccccc1C(=O)NCCN1CCNC1=O | 12.6 |
| CCCCNS(=O)(=O)c1ccc(OC)c(Cl)c1Cl | -2.31 |
| CC(C)CN(C(=O)c1nn(C)c(=O)c2ccccc12)c1nc2ccccc2s1 | -1.91 |
| CC(=O)[C@@H]1[C@@H]2C(=O)N(Cc3ccccc3)C(=O)[C@@H]2C2c3ccccc3C=CN21 (stereo partly drawn) | 8.85 |
| Nc1ncncc1-c1ccc2ccccc2c1 | -7.48 |
| Cc1ccc(N/C(CSC(N)=O)=N\S(=O)(=O)c2ccc(C)cc2)cc1 | 15.5 |
| CC(=O)OC1OCCOC1NC(=S)Nc1cccc(C(F)(F)F)c1 (stereo not drawn) | 17.5 |
| NC(=O)CNC(=O)[C@@H]1CC2(CC(c3cccc([N+](=O)[O-])c3)=NO2)CN1C(=O)c1ccccc1 (stereo partly drawn) | 7.77 |
| CS(=O)(=O)N(CC(=O)N1CCCCCC1)c1cccc(Cl)c1Cl | 5.89 |
